# According to the supplement of paper PMC8728848:
# Some of the results follow.
# Key:
# Test in all cases: glycan array binding signal (z-score within array); higher = stronger binding
# Details in all cases: glycan notation: IUPAC condensed, linker removed
# [1] = biological target: Gal3S(b1-4)Glc
# Procedure, shortened: (§1)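 Arrays were curated from the Consortium for Functional Glycomics database, 3228 in total, and kept only where the protein sequence was available. Binding is expressed as a within-array Z-score. This score was averaged across arrays of the same protein sequence at different concentrations or buffers and across linkers, and negative values can be read as non-binding.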
# [2] = biological target: Gal3S(b1-4)Glc6S
# Procedure, shortened: as §1
# [3] = biological target: Gal3S(b1-4)GlcNAc
# Procedure, shortened: as §1
# [4] = biological target: Gal3S(b1-4)[Fuc(a1-3)]Glc6S
# Procedure, shortened: as §1
# [5] = biological target: Gal3S(b1-4)[Fuc(a1-3)]GlcNAc
# Procedure, shortened: as §1
# [6] = biological target: Gal3S(b1-4)[Fuc(a1-3)]GlcNAc6S
# Procedure, shortened: as §1
# [7] = biological target: Gal3S4S(b1-4)GlcNAc
# Procedure, shortened: as §1
# [8] = biological target: Gal3S6S(b1-4)GlcNAc
# Procedure, shortened: as §1
# [9] = biological target: Gal3S6S(b1-4)GlcNAc6S
# Procedure, shortened: as §1
# [10] = biological target: Gal4S(b1-4)GlcNAc
# Procedure, shortened: as §1
# [11] = biological target: Gal4S6S(b1-4)GlcNAc
# Procedure, shortened: as §1
# [12] = biological target: Gal6P(b1-4)GlcNAc
# Procedure, shortened: as §1
# [13] = biological target: Gal6S(b1-3)GlcNAc
# Procedure, shortened: as §1
# [14] = biological target: Gal6S(b1-3)GlcNAc6S
# Procedure, shortened: as §1
# [15] = biological target: Gal6S(b1-4)Glc
# Procedure, shortened: as §1
# [16] = biological target: Gal6S(b1-4)Glc6S
# Procedure, shortened: as §1
# [17] = biological target: Gal6S(b1-4)GlcNAc
# Procedure, shortened: as §1
# [18] = biological target: Gal6S(b1-4)GlcNAc6S
# Procedure, shortened: as §1
# [19] = biological target: GalNAc(a1-3)Gal
# Procedure, shortened: as §1
# [20] = biological target: GalNAc(a1-3)GalNAc
# Procedure, shortened: as §1
# [21] = biological target: GalNAc(a1-3)GalNAc(a1-3)Gal(a1-4)Gal(b1-4)GlcNAc
# Procedure, shortened: as §1
# [22] = biological target: GalNAc(a1-3)GalNAc(b1-3)Gal(a1-4)Gal(b1-4)Glc
# Procedure, shortened: as §1
# [23] = biological target: GalNAc(b1-3)Gal
# Procedure, shortened: as §1
# [24] = biological target: GalNAc(b1-3)Gal(a1-4)Gal(b1-4)GlcNAc
# Procedure, shortened: as §1
# [25] = biological target: GalNAc(b1-3)Gal(a1-4)Gal(b1-4)GlcNAc(b1-3)Gal(b1-4)Glc
# Procedure, shortened: as §1
# [26] = biological target: GalNAc(b1-3)Gal(a1-6)Gal(b1-4)Glc
# Procedure, shortened: as §1
# [27] = biological target: GalNAc(b1-3)GalNAc
# Procedure, shortened: as §1
# [28] = biological target: GalNAc(b1-3)GlcNAc
# Procedure, shortened: as §1
# [29] = biological target: GalNAc(b1-4)Gal(b1-4)Glc
# Procedure, shortened: as §1
# [30] = biological target: GalNAc(b1-4)GlcNAc
# Procedure, shortened: as §1
# [31] = biological target: GalNAc(b1-4)GlcNAc(b1-2)Man
# Procedure, shortened: as §1
# [32] = biological target: GalNAc(b1-4)GlcNAc(b1-2)Man(a1-3)[GalNAc(b1-4)GlcNAc(b1-2)Man(a1-6)]Man(b1-4)GlcNAc(b1-4)GlcNAc
# Procedure, shortened: as §1
# [33] = biological target: GalNAc(b1-4)GlcNAc(b1-3)GalNAc(b1-4)GlcNAc
# Procedure, shortened: as §1
# [34] = biological target: GalNAc(b1-4)GlcNAc6S
# Procedure, shortened: as §1
# [35] = biological target: GalNAc(b1-6)GalNAc
# Procedure, shortened: as §1
# [36] = biological target: GalNAc3S(b1-4)GlcNAc
# Procedure, shortened: as §1
# [37] = biological target: GalNAc3S(b1-4)GlcNAc3S
# Procedure, shortened: as §1
# [38] = biological target: GalNAc3S(b1-4)[Fuc(a1-3)]GlcNAc
# Procedure, shortened: as §1
# [39] = biological target: GalNAc4S6S(b1-4)GlcNAc
# Procedure, shortened: as §1
# [40] = biological target: GalNAc6S(b1-4)GlcNAc
# Procedure, shortened: as §1
# [41] = biological target: Glc(a1-4)Glc
# Procedure, shortened: as §1
# [42] = biological target: Glc(a1-4)Glc(a1-4)Glc(a1-4)Glc
# Procedure, shortened: as §1
# [43] = biological target: Glc(a1-6)Glc(a1-6)Glc
# Procedure, shortened: as §1
# [44] = biological target: Glc(a1-6)Glc(a1-6)Glc(a1-6)Glc
# Procedure, shortened: as §1
# [45] = biological target: Glc(b1-4)Glc
# Procedure, shortened: as §1
binder,measurement,setting,value
"CLECb-Precomplexed (Mus musculus), P43025 (protein) MAKNGLVLCILVVSLLLDQTDGYPSRMKARKHSKRRVKAKDDDLKSQVEKLWREVNALKEMQALQTVCLRGTKVHKKCYLASEGLKHYHEANEDCISKGGTLVVPRNSDEINALRDYGKRSLPGVNDFWLGINDMVTEGKFLDVHGFAVSFLNWDRAQPSGGKRENCVLFSQSAQGKWSDEACRSSKRYICEFIIPTRTRPLEQKLISEEDLAANDILDYKDDDDKV",glycan array binding signal (z-score),[1],0.146
same,glycan array binding signal (z-score),[2],-0.045
same,glycan array binding signal (z-score),[3],-0.36
same,glycan array binding signal (z-score),[4],3.47
same,glycan array binding signal (z-score),[5],-0.397
same,glycan array binding signal (z-score),[6],0.004
same,glycan array binding signal (z-score),[7],-0.208
same,glycan array binding signal (z-score),[8],-0.251
same,glycan array binding signal (z-score),[9],-0.426
same,glycan array binding signal (z-score),[10],-0.4
same,glycan array binding signal (z-score),[11],-0.052
same,glycan array binding signal (z-score),[12],-0.205
same,glycan array binding signal (z-score),[13],-0.105
same,glycan array binding signal (z-score),[14],0.87
same,glycan array binding signal (z-score),[15],0.134
same,glycan array binding signal (z-score),[16],0.254
same,glycan array binding signal (z-score),[17],-0.273
same,glycan array binding signal (z-score),[18],0.049
same,glycan array binding signal (z-score),[19],0.12
same,glycan array binding signal (z-score),[20],-0.094
same,glycan array binding signal (z-score),[21],-0.116
same,glycan array binding signal (z-score),[22],-0.054
same,glycan array binding signal (z-score),[23],0.144
same,glycan array binding signal (z-score),[24],-0.291
same,glycan array binding signal (z-score),[25],-0.387
same,glycan array binding signal (z-score),[26],0.033
same,glycan array binding signal (z-score),[27],-0.398
same,glycan array binding signal (z-score),[28],0.861
same,glycan array binding signal (z-score),[29],-0.156
same,glycan array binding signal (z-score),[30],-0.207
same,glycan array binding signal (z-score),[31],-0.043
same,glycan array binding signal (z-score),[32],0.242
same,glycan array binding signal (z-score),[33],-0.127
same,glycan array binding signal (z-score),[34],-0.219
same,glycan array binding signal (z-score),[35],-0.195
same,glycan array binding signal (z-score),[36],-0.033
same,glycan array binding signal (z-score),[37],-0.243
same,glycan array binding signal (z-score),[38],-0.433
same,glycan array binding signal (z-score),[39],-0.507
same,glycan array binding signal (z-score),[40],-0.369
same,glycan array binding signal (z-score),[41],-0.153
same,glycan array binding signal (z-score),[42],-0.285
same,glycan array binding signal (z-score),[43],-0.387
same,glycan array binding signal (z-score),[44],-0.182
same,glycan array binding signal (z-score),[45],1.28
